From US20240392031A1 (BICARA THERAPEUTICS, published 2024)

B1: BCA372, anti-hCAIX hIL-12 fusion protein (hIL-12p40 K219A) (other)
heavy 1: EVRLVESGGGLVKPGGSLRLSCAASGFTFSNYYMSWIRQAPEKRLELVSAINSDGGITYYLDTVKGRFTISRDNAKNSLYLQMNSLRAEDTALFYCARHRSGYFSMDYWGQGTSVTVSS[human IgG1 constant region with changes left out here]GGGGSGGGGSGGGGSIWELKKDVYVVELDWYPDAPGEMVVLTCDTPEEDGITWTLDQSSEVLGSGKTLTIQVKEFGDAGQYTCHKGGEVLSHSLLLLHKKEDGIWSTDILKDQKEPKNKTFLRCEAKNYSGRFTCWWLTTISTDLTFSVKSSRGSSDPQGVTCGAATLSAERVRGDNKEYEYSVECQEDSACPAAEESLPIEVMVDAVHKLAYENYTSSFFIRDIIKPDPPKNLQLKPLKNSRQVEVSWEYPDTWSTPHSYFSLTFCVQVQGKSKREKKDRVFTDKTSATVICRKNASISVRAQDRYYSSSWSEWASVPCS
heavy 2: EVRLVESGGGLVKPGGSLRLSCAASGFTFSNYYMSWIRQAPEKRLELVSAINSDGGITYYLDTVKGRFTISRDNAKNSLYLQMNSLRAEDTALFYCARHRSGYFSMDYWGQGTSVTVSSASTKGPSVFPLAPSSKSTSGGTAALGCLVKDYFPEPVTVSWNSGALTSGVHTFPAVLQSSGLYSLSSVVTVPSSSLGTQTYICNVNHKPSNTKVDKKV[human IgG1 Fc with changes left out here]GGGGSGGGGSGGGGSRNLPVATPDPGMFPCLHHSQNLLRAVSNMLQKARQTLEFYPCTSEEIDHEDITKDKTSTVEACLPLELTKNESCLNSRETSFITNGSCLASRKTSFMMALCLSSIYEDLKMYQVEFKTMNAKLLMDPKRQIFLDQNMLAVIDELMQALNFNSETVPQKSSLEEPDFYKTKIKLCILLHAFRIRAVTIDRVMSYLNAS
light: EIVMTQSPATLSVSPGERATLSCKASQNVVSAVAWYQQKPGQSPRLLIYSASNRYTGIPARFSGSGSGTEFTLTISSLQSEDFAAYYCQQYRNYPWTFGGGTKVEIKRTVAAPSVFIFPPSDEQLKSGTASVVCLLNNFYPREAKVQWKVDNALQSGNSQESVTEQDSKDSTYSLSSTLTLSKADYEKHKVYACEVTHQGLSSPVTKSFNRGEC
B2: BCA378, anti-hCAIX hIL-12 fusion protein (hIL-12p40 K217A, K219A) (other)
heavy 1: EVRLVESGGGLVKPGGSLRLSCAASGFTFSNYYMSWIRQAPEKRLELVSAINSDGGITYYLDTVKGRFTISRDNAKNSLYLQMNSLRAEDTALFYCARHRSGYFSMDYWGQGTSVTVSS[human IgG1 constant region with changes left out here]GGGGSGGGGSGGGGSIWELKKDVYVVELDWYPDAPGEMVVLTCDTPEEDGITWTLDQSSEVLGSGKTLTIQVKEFGDAGQYTCHKGGEVLSHSLLLLHKKEDGIWSTDILKDQKEPKNKTFLRCEAKNYSGRFTCWWLTTISTDLTFSVKSSRGSSDPQGVTCGAATLSAERVRGDNKEYEYSVECQEDSACPAAEESLPIEVMVDAVHALAYENYTSSFFIRDIIKPDPPKNLQLKPLKNSRQVEVSWEYPDTWSTPHSYFSLTFCVQVQGKSKREKKDRVFTDKTSATVICRKNASISVRAQDRYYSSSWSEWASVPCS
heavy 2: EVRLVESGGGLVKPGGSLRLSCAASGFTFSNYYMSWIRQAPEKRLELVSAINSDGGITYYLDTVKGRFTISRDNAKNSLYLQMNSLRAEDTALFYCARHRSGYFSMDYWGQGTSVTVSSASTKGPSVFPLAPSSKSTSGGTAALGCLVKDYFPEPVTVSWNSGALTSGVHTFPAVLQSSGLYSLSSVVTVPSSSLGTQTYICNVNHKPSNTKVDKKV[human IgG1 Fc with changes left out here]GGGGSGGGGSGGGGSRNLPVATPDPGMFPCLHHSQNLLRAVSNMLQKARQTLEFYPCTSEEIDHEDITKDKTSTVEACLPLELTKNESCLNSRETSFITNGSCLASRKTSFMMALCLSSIYEDLKMYQVEFKTMNAKLLMDPKRQIFLDQNMLAVIDELMQALNFNSETVPQKSSLEEPDFYKTKIKLCILLHAFRIRAVTIDRVMSYLNAS
light: B1 light
B3: BCA327.16, anti-hCAIX hIL-12 fusion protein (hIL-12p40 variant K: E81A, F82A, K106A) (other)
heavy 1: EVRLVESGGGLVKPGGSLRLSCAASGFTFSNYYMSWIRQAPEKRLELVSAINSDGGITYYLDTVKGRFTISRDNAKNSLYLQMNSLRAEDTALFYCARHRSGYFSMDYWGQGTSVTVSS[human IgG1 constant region with changes left out here]GGGGSGGGGSGGGGSIWELKKDVYVVELDWYPDAPGEMVVLTCDTPEEDGITWTLDQSSEVLGSGKTLTIQVKAAGDAGQYTCHKGGEVLSHSLLLLHAKEDGIWSTDILKDQKEPKNKTFLRCEAKNYSGRFTCWWLTTISTDLTFSVKSSRGSSDPQGVTCGAATLSAERVRGDNKEYEYSVECQEDSACPAAEESLPIEVMVDAVHKLKYENYTSSFFIRDIIKPDPPKNLQLKPLKNSRQVEVSWEYPDTWSTPHSYFSLTFCVQVQGKSKREKKDRVFTDKTSATVICRKNASISVRAQDRYYSSSWSEWASVPCS
heavy 2: EVRLVESGGGLVKPGGSLRLSCAASGFTFSNYYMSWIRQAPEKRLELVSAINSDGGITYYLDTVKGRFTISRDNAKNSLYLQMNSLRAEDTALFYCARHRSGYFSMDYWGQGTSVTVSSASTKGPSVFPLAPSSKSTSGGTAALGCLVKDYFPEPVTVSWNSGALTSGVHTFPAVLQSSGLYSLSSVVTVPSSSLGTQTYICNVNHKPSNTKVDKKV[human IgG1 Fc with changes left out here]GGGGSGGGGSGGGGSRNLPVATPDPGMFPCLHHSQNLLRAVSNMLQKARQTLEFYPCTSEEIDHEDITKDKTSTVEACLPLELTKNESCLNSRETSFITNGSCLASRKTSFMMALCLSSIYEDLKMYQVEFKTMNAKLLMDPKRQIFLDQNMLAVIDELMQALNFNSETVPQKSSLEEPDFYKTKIKLCILLHAFRIRAVTIDRVMSYLNAS
light: B1 light with R92S
B4: BCA310.16, anti-hCAIX hIL-12 fusion protein (hIL-12p40 variant B: Δ23-127, D1 Domain Deleted) (other)
heavy 1: EVRLVESGGGLVKPGGSLRLSCAASGFTFSNYYMSWIRQAPEKRLELVSAINSDGGITYYLDTVKGRFTISRDNAKNSLYLQMNSLRAEDTALFYCARHRSGYFSMDYWGQGTSVTVSS[human IgG1 constant region with changes left out here]GGGGSGGGGSGGGGSFLRCEAKNYSGRFTCWWLTTISTDLTFSVKSSRGSSDPQGVTCGAATLSAERVRGDNKEYEYSVECQEDSACPAAEESLPIEVMVDAVHKLKYENYTSSFFIRDIIKPDPPKNLQLKPLKNSRQVEVSWEYPDTWSTPHSYFSLTFCVQVQGKSKREKKDRVFTDKTSATVICRKNASISVRAQDRYYSSSWSEWASVPCS
heavy 2: EVRLVESGGGLVKPGGSLRLSCAASGFTFSNYYMSWIRQAPEKRLELVSAINSDGGITYYLDTVKGRFTISRDNAKNSLYLQMNSLRAEDTALFYCARHRSGYFSMDYWGQGTSVTVSSASTKGPSVFPLAPSSKSTSGGTAALGCLVKDYFPEPVTVSWNSGALTSGVHTFPAVLQSSGLYSLSSVVTVPSSSLGTQTYICNVNHKPSNTKVDKKV[human IgG1 Fc with changes left out here]GGGGSGGGGSGGGGSRNLPVATPDPGMFPCLHHSQNLLRAVSNMLQKARQTLEFYPCTSEEIDHEDITKDKTSTVEACLPLELTKNESCLNSRETSFITNGSCLASRKTSFMMALCLSSIYEDLKMYQVEFKTMNAKLLMDPKRQIFLDQNMLAVIDELMQALNFNSETVPQKSSLEEPDFYKTKIKLCILLHAFRIRAVTIDRVMSYLNAS
light: B1 light with R92S

Biological target: T1, human IL-12 receptor (hIL-12R), heterodimer of hIL-12Rβ1 and hIL-12Rβ2 (human, UniProt P42701 24-662; Q99665 24-862)
Assay: cell-based or functional assay

Binder	Fold Attenuation (Over Fc-IL-12 Control); HEK-Blue IL-12 reporter assay [fold]
B1	2
B2	5

Biological target: T1, human IL-12 receptor (hIL-12R), …
Assay: cell-based or functional assay
Remark: another data set of the same source

Binder	HEK-IL12 reporter assay Attenuation (summary table) [fold]
B1	2
B2	5

Biological target: T1, human IL-12 receptor (hIL-12R), …
Assay: cell-based or functional assay
Remark: another data set of the same source

Binder	HEK IL-12 Reporter Assay (Ratio of EC50) [ratio]	PSTAT (CD8) flow cytometry - percent reduction at 16.9 nM [%]
B3	9570	88.2
B4	22700	98.8

Substitutions are numbered along the chain they refer to. Numbers in names are those of the source.
